From article PMC12136788 come the findings set out here.

The labels stand for the following.
B1: chr5:145543945:145543946:-_ENSG00000133706_ENST00000545646|hu_hu|hu_hu_hu_mus_True|18_78 (ssRNA)
RNA: GGGAGUUCUACAGUCCGACGAUCCUGAACGGCCAGUGGUGGGAAAUAAUCAAGCCAAUGUUCUGCUUCAGAAAACUUCACUAUGUCGUCAUCAGAGAGCCCAAGGGAUUUCAUAAUGCCCCACUGGUACUUAGAAGAUCCUGCCAACAGAGGAUUGAGCAUCA
B2: chr4:95690885:95690886:+_ENSMUSG00000028572_ENSMUST00000156910|mus_mus|mus_mus_mus_hu_False|68_88 (ssRNA)
RNA: GGGAGUUCUACAGUCCGACGAUCUUUAGAAAAUGUUAAAUACCAUGAGCAUGCUAAUUCAAAGGCUAGUCUUAUUUUACCAGAAGUCACAGGCAAGCAGACACUACAAGAAUAUAUGAAAAUGAAACUCAACAAUAUAACUGUCAACAGAGGAUUGAGCAUCA
B3: chr4:48850422:48850423:+_ENSG00000109180_ENST00000264312|hu_mus|motif|central (ssRNA)
RNA: GGGAGUUCUACAGUCCGACGAUCAGCGAAUAGAAGUUUAGGAAUUGAACCAUAUUUUGGAUGACUUGACAGGAUUCCUUUACGGAUUAAUCCUUGAGUAAUCAGCAUACUUGUGGCAGCCAACGGCACAGAUCUGAACCAGAACAACAGAGGAUUGAGCAUCA
B4: chr7:141450121:141450122:+_ENSG00000106028_ENST00000265304|hu_hu|motif|central (ssRNA)
RNA: GGGAGUUCUACAGUCCGACGAUCUCAUCCUUUCUACUCCUUCUCUUUCGUCUGGUCACUCAGAAAUAUAAUAUUAUCAGCGGUGAUUGUUGUUGCUUGUCGCCUCACAUUAUUUUUAUCCAUGUAUUCACCAUAGUCUAUUUUCAACAGAGGAUUGAGCAUCA
B5: chr2:202488911:202488912:-_ENSG00000155755_ENST00000286196|hu_mus|hu_hu_hu_mus_False|68_88 (ssRNA)
RNA: GGGAGUUCUACAGUCCGACGAUCAUUGAAACAUUUUUCAUAAUCUCAGAGAUGUUUUCAGCAUUAUUAAUCAAAAACUCAAUUGUAAAUACAUGUAUCUUAUAAAAAUACACUUAAAAACACGAGUGGGGAGCGCAGGCGCCACAACAGAGGAUUGAGCAUCA
B6: chr2:64323713:64323714:-_ENSG00000197329_ENST00000358912|hu_mus|motif|central (ssRNA)
RNA: GGGAGUUCUACAGUCCGACGAUCGCUUUGUACUGACUGCGUGUCGGAAUUACUCUGACUUCCAGGAACGGUGUCAGUUACGGCAAAAUCAAUAGGACUUUCAGUUGACCGACCAAUCUGAAACAUAUCAGUGUUGCUGUCAUGCAACAGAGGAUUGAGCAUCA

This is one part of the list.

This experiment concerns the target T1, UNK ZnF1-3 (human, UniProt Q9C0B0 31-174).
T1 sequence: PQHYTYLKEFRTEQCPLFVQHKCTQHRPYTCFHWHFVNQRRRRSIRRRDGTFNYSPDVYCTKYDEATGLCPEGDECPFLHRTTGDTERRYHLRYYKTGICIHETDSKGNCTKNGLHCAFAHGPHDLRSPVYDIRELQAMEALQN
Kind of experiment: nsRBNS (natural sequence RNA bind-n-seq); RBNS binding buffer (assumed for nsRBNS): 25 mM Tris pH 7.5, 150 mM KCl, 3 mM MgCl2, 0.01% Triton X-100, 500 ug/ml BSA, 20 U/ml SUPERase-In, 4 C; UNK is unkempt and MSI1 is Musashi-1; names of the RNAs are library labels; protein concentration not given here; high values mean tight binding.
Molecule B1 gave a binding signal of 1.3 enrichment R.
Under B2 stands 1.64 enrichment R; under B3, 1.24 enrichment R.
To B4 belongs 0.467 enrichment R.
To B5 belongs 0.769 enrichment R; to B6, 0.461 enrichment R.
